Assay results reported in PubChem BioAssay AID1460 (National Center for Advancing Translational Sciences (NCATS), 2008).
“And” between values parts separate entries of the source, which are not always exact repeats. Identical values can stand only once. About 5,800 (2.1%) of roughly 270,000 compounds were called active. Inconclusive means that the source gave no clear call. Such entries were picked first, then a sample of the others. Calls follow the shape of the dose curve; as a rule, active = well fitted inhibition curve with a large enough effect; inconclusive = small, poorly fitted or top-dose-only effect; inactive = flat fitted curve, though single readings scatter. Where the call is inconclusive, the potency comes from a doubtful curve fit.
Also: nearly all actives have a fitted effect of over 55% in size.
Potency is read from the fitted curve at half-maximal effect; tags tell the direction and shape of the fitted curve.

Each compound was assayed against Microtubule-associated protein tau (Homo sapiens) (UniProt P10636) (assay: qHTS for Inhibitors of Tau Fibril Formation, Thioflavin T Binding). Conditions: recombinant tau K18 P301L (four-repeat tau fragment), heparin-induced fibrillization, ThT fluorescence; series mostly up to 57.4 µM.
Sequence of UniProt P10636 (P10636 whole entry, looked up, the tested form may be a part): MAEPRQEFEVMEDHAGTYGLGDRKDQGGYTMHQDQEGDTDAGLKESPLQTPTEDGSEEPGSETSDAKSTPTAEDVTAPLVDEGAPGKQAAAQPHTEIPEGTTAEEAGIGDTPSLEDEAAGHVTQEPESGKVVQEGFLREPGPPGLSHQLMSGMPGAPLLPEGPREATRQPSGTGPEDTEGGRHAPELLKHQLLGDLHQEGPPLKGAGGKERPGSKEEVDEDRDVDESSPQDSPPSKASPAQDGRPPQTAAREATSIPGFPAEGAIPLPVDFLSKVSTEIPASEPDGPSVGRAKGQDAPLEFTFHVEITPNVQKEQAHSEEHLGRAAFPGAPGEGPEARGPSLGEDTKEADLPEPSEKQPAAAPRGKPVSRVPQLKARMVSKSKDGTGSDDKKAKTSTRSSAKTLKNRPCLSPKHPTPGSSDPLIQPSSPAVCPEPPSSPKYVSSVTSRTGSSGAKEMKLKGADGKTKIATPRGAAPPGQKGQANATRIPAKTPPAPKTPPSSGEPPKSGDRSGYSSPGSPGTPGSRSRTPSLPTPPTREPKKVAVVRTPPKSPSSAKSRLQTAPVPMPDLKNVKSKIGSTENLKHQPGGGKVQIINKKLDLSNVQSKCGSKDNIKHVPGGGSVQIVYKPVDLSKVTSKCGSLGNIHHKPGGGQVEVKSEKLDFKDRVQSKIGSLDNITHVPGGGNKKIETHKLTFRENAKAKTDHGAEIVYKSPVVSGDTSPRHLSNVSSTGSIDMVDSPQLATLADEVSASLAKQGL
How it was run: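 Heparin-induced (20 uM) aggregation of recombinant human K18 P301L tau, 15 uM unlabeled with 0.24 uM labeled, pH 7 acetate buffer, 6 hr at 37 C with compound. Fibrils quantified by 30 uM ThT fluorescence after 1 hr ambient incubation.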
In the case of `Nc1ccc(NC(=O)c2cccc(C(=O)Nc3ccc(N)cc3Cl)c2)c(Cl)c1`, the Potency is reported as inconclusive: 12.6 µM [inhibitor, partial curve].
`COC(=O)c1c(NC(=O)c2ccco2)sc2c1CCC2` was tested, and the Potency was inconclusive: 11.2 µM [inhibitor, partial curve, poor fit].
With `CC(C)(C)C(=O)[C@@H]1[C@@H]2C(=O)N(C3CCCCC3)C(=O)[C@@H]2[C@H]2c3ccccc3C=CN12` the Potency was active: 31.6 µM.
In the case of `O=C(Nc1ccc(-c2nc3cc(NC(=O)c4ccc(F)cc4)ccc3o2)cc1)c1ccc(F)cc1`, the Potency is reported as inconclusive: 10 µM [inhibitor, partial curve].
For `N[C@@H](Cc1ccc(O)cc1)C(=O)O`, the Potency was “inactive”.
For `CCOC(=O)N1CCN(S(=O)(=O)c2ccc(C(=O)NNc3nc4cc(C)cc(C)c4s3)cc2)CC1`, the Potency was “inactive”.
For `CC(=O)N1CCc2c(sc3nc(SCC(C)C)n(-c4ccc(C)c(Cl)c4)c(=O)c23)C1`, the Potency was inconclusive: 25.1 µM [inhibitor, partial curve].
In the case of `CC(C)(C)c1ccc(/C=N/NC(=O)Cc2c[nH]c3ccccc23)cc1`, the Potency is reported as inconclusive: 17.8 µM [inhibitor, partial curve].
In the case of `O=C(N/N=C/c1ccc(O)c(O)c1O)/C(=C/c1ccc([N+](=O)[O-])cc1)NC(=O)c1ccccc1`, the Potency is reported as active: 3.55 µM.
For `Cc1cc(C)c2c(c1)/C(=N\N=c1\sc3ccccc3n1C)C(=O)N2`, the Potency was active: 4.47 µM.
`N#C/C(=C\c1cccc([N+](=O)[O-])c1)c1ccccn1` was tested, and the Potency was inconclusive: 17.8 µM [inhibitor, partial curve].
In the case of `COc1ccc(OC)c(C2CC(=O)N3CN(c4cccc(Cl)c4C)CSC3=C2C#N)c1` (stereo not given), the Potency is reported as active: 28.2 µM.
For `Cc1ccccc1CNC(=O)C1=Cc2ccccc2OC1`, the Potency was “inactive”.
For `CN(Cc1cnc2nc(N)nc(N)c2n1)c1ccc(C(=O)N[C@@H](CCC(=O)O)C(=O)O)cc1`, the Potency was inconclusive: 39.8 µM [inhibitor, single point] and inconclusive: 17.8 µM [inhibitor, partial curve] and inconclusive: 20 µM [inhibitor, partial curve].
In the case of `CCCn1c2ccccc2c2cnn(CC(=O)NCC3CCN(Cc4ccc(F)cc4)CC3)c(=O)c21`, the Potency is reported as “inactive”.
With `CC1CCCN(c2cc(N(C)CCO)c([N+](=O)[O-])c3nonc23)C1` (stereo not given) the Potency was inconclusive: 11.2 µM [inhibitor, partial curve].
With `Cc1cccc(-c2nn3c(=O)cc(CN4CCN(C(=O)c5ccccc5Br)CC4)nc3s2)c1` the Potency was inconclusive: 14.1 µM [inhibitor, single point].
For `CCC(C)(C)n1nnnc1C(c1ccccc1)N1CCN(C2CCCC2)CC1` (stereo not given), the Potency was “inactive”.
In the case of `CNc1ccc(Br)cc(C(=O)/C=C/c2ccc(OC)cc2OC)c1=O`, the Potency is reported as active: 11.2 µM.
For `O=C(Cc1cccs1)NC1C(=O)N2C(C(=O)[O-])=C(C[n+]3ccccc3)CSC12` (stereo not given), the Potency was active: 15.8 µM.
For `CC(=O)NC1CCCN(O)C(=O)/C=C(\C)CCOC(=O)C(NC(C)=O)CCCN(O)C(=O)/C=C(\C)CCOC(=O)C(NC(C)=O)CCCN(O)C(=O)/C=C(\C)CCOC1=O` (stereo not given), the Potency was “inactive”.
For `Cc1ccc(CSCCNC(=O)CSc2ccccc2)cc1`, the Potency was “inactive”.
`COc1cc(N2CCCC2)c(OC)cc1/C=C(/C#N)c1ccc(Br)cc1` was tested, and the Potency was inconclusive: 15.8 µM [inhibitor, partial curve].
In the case of `Cn1nc(-c2ccccn2)nc2c(=O)n(C)c(=O)nc1-2`, the Potency is reported as active: 5.62 µM.
`O=C(N/N=C/c1ccc(N2CCOCC2)cc1)c1ccccc1NS(=O)(=O)c1cccs1` was tested, and the Potency was inconclusive: 15.8 µM [inhibitor, partial curve].
With `Fc1cccc(/C=N/Nc2ccc3ccccc3n2)c1` the Potency was inconclusive: 15.8 µM [inhibitor, partial curve].
With `CC(=O)Nc1ccc(N=Nc2ccc(O)cc2)cc1` the Potency was active: 7.94 µM.
With `COc1ccc(-c2noc(CCCC(=O)Nc3cccc(Cl)c3C)n2)cc1` the Potency was “inactive”.
In the case of `CC(NC(=O)/C=C/c1ccc(Br)cc1)c1ccccc1` (stereo not given), the Potency is reported as “inactive”.
In the case of `O=[N+]([O-])C(=C1SCCS1)C(=C(Cl)Cl)N1CCCCC1`, the Potency is reported as inconclusive: 12.6 µM [inhibitor, partial curve, poor fit].
In the case of `CCc1ccc(NC(=O)CCc2c(C)nc3nc(-c4cc(OC)cc(OC)c4)nn3c2C)cc1`, the Potency is reported as “inactive”.
`COc1cc(/C=c2\s/c(=C(/C#N)C(=O)N3CCCC3)n(-c3ccccc3)c2=O)ccc1O` was tested, and the Potency was inconclusive: 4.47 µM [inhibitor, single point].
In the case of `Cc1ccc(NC(=S)Nc2ccc(S(=O)(=O)Nc3ncccn3)cc2)cc1Cl`, the Potency is reported as “inactive”.
With `Cc1nc2c(C(=O)NCCC(C)C)c[nH]n2c(=O)c1Cc1ccccc1F` the Potency was “inactive”.
`CC(Cc1ccc(O)c(O)c1)(NN)C(=O)O` (stereo not given) was tested, and the Potency was active: 14.1 µM.
For `CCc1nnc(NC(=O)CSc2nnc(-c3ccco3)n2C)s1`, the Potency was inconclusive: 31.6 µM [inhibitor, single point].
`CCOc1cc(N2CCOCC2)c(OCC)cc1NC(C)C(=O)N1CCN(CC)CC1` (stereo not given) was tested, and the Potency was active: 15.8 µM.
For `O=C(NC(=S)Nc1ccc(N2CCOCC2)cc1)c1ccco1`, the Potency was inconclusive: 15.8 µM [inhibitor, partial curve].
For `O=C(CSc1nnc(-c2ccc(O)cc2)n1Cc1ccco1)c1ccccc1`, the Potency was inconclusive: 20 µM [inhibitor, single point].
For `O=C(CCl)N(c1ccc(Cl)cc1)c1c[nH]c2ccccc12`, the Potency was inconclusive: 35.5 µM [inhibitor, single point].
In the case of `CC(=O)c1cccc(NC(=O)NCCS(C)=O)c1` (stereo not given), the Potency is reported as “inactive”.
For `O=C1CC(c2ccc(F)cc2)CC(O)=C1C1NCCc2ccccc21` (stereo not given), the Potency was inconclusive: 8.91 µM [inhibitor, partial curve].
In the case of `CCOC(=O)c1ccc(NCC(O)COc2ccccc2)cc1` (stereo not given), the Potency is reported as inconclusive: 15.8 µM [inhibitor, partial curve].
In the case of `CCn1c2ccccc2c2nnc(N3CCN(c4cccc(Cl)c4)CC3)nc21`, the Potency is reported as inconclusive: 35.5 µM [inhibitor, single point].
`COc1ccc(C(=O)Nc2ccc3c(c2)C(=O)c2ccccc2C3=O)cc1OC` was tested, and the Potency was inconclusive: 0.316 µM [inhibitor, full curve].
